# Results published in PubChem BioAssay (NCI).
# The source holds several records for some structures; these can differ, active in one and inactive in another.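 Growth was measured after 48 h exposure to one concentration of compound in 96-well plates. Values under 10 count as active.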 Not every entry of the source has a single result; some have several. Only these are listed. There may be further records. The screen tested this drug many times, at the concentration stated with the values; one value stands for one run. Marks such as (2×) stand for listed records that agree.
# Tested on: SW-620 colon
# Test: NCI-60 one-dose screen, 48 h (100 = growth as untreated, 0 = no growth, -100 = all killed)
smiles,measurement,setting,value
COc1cccc2c1C(=O)c1c(O)c3c(c(O)c1C2=O)C[C@@](O)(C(=O)CO)C[C@@H]3OC1CC(N)C(O)C(C)O1 (stereo not given in full),growth,"0.25 µM, runs of 2018","inactive: 32.9 (2×), 35.6, 34.6 (2×), 40.1, 41.5, 31.4 (2×), 33.4, 36.3, 39.7, 41.6, 42.7, 36, 34.4 (2×), 40.5, 31.7, 36.2 (2×), 29.3, 33.7, 33.2, 30.6, 28, 32.2, 32.8, 26.2, 34.2, 37.9, 44.3, 32.3, 33.8, 33.9, 31.5, 30.4, 33.1, 19.4, 26.6%"
same,growth,"0.25 µM, runs of 2019","inactive: 29.2 (2×), 28.4, 21.9, 22.3, 25, 30.1, 25.6, 24.5, 26.4, 24.7, 28.6 (3×), 30.8, 30, 32.5, 33.7, 32, 29.4, 31.5, 30.7, 29.1 (2×), 27.7, 25.1, 33.2, 33.9, 27.9, 26, 24, 26.9, 35.1, 35.6, 33.3, 31.4, 36.1, 23.8, 23.9, 26.1%"
same,growth,"0.25 µM, runs of 2020","inactive: 33.4, 30.3 (3×), 35.4, 32, 34.6, 32.2, 27.3, 28.2, 36.8, 31.5 (2×), 29.9, 37.6, 30.8, 24.4, 32.8, 29.1%"
same,growth,"0.25 µM, runs of 2021","inactive: 34.6, 37.8, 37.1 (2×), 38.5, 33.9, 29.4 (2×), 30.6, 30.7 (2×), 30.1, 26.8, 27.6, 37.4, 32.7, 37, 33.3 (2×), 28.9, 29.5, 31.4, 29.9 (2×), 29.3, 32.8, 28, 28.2, 30.4, 30.5, 29.1, 31.5, 32.2, 35.8, 34.4, 27, 30.2, 27.7, 27.4, 36.4, 24.8, 24.7, 47.1%"
same,growth,"0.25 µM, runs of 2022","inactive: 22.5, 24.6, 31.5, 27.2, 10.1, 28.4, 22.1, 27.5 (2×), 29, 23.2, 30.3, 30.2, 29.5, 32.3, 29.7, 20.3, 53.7, 51.9, 27.3, 56, 50.6, 55.2, 34, 35.6, 31.4%"
same,growth,"25 µM, runs of 1991","active: -19.9, -17.6, -14.3, -24.4, -24.2, -9.38, -22.7, -15.6, -10.7, -12.5, -6.45, -19.1, -18.9, 2.46, -17.2, -9.11, -2.49, -21.8, -24.9%"
same,growth,"25 µM, runs of 1992","active: -16.2, -39.9, -19.2, -41.9, 4.47, -17.1, -34.3, -24.5, -3.31, -15.3, -13.8, -11.6, -1.37, -20.7, 0.794, -41.7, -13.4, -10.9, -22.1, -64.6, -19.7 (2×), -33.4, -33.8 (2×), -9.09, -5.05, -13.3, -4.38, -6.93, -67.4, -15.9, -20.8, -39, -13, -17.3, -7.43, -27, -29.2, -22.9, -18.4, -19.1 (2×), -10.6 (2×), 4.62, 1.89, 1.44, -58.2, 0.84, -62.6, -58.5, -36, -16.8, 0.221, -4.85, -19, -36.2, -42.9, -3.71, -3.05, -25.9, -3.83, -38.3, -7.32, -35.3 (2×), -24.1, -34.9, -46.6, -30.9, -11.2, -38.6, -13.9, -6.98, -6.81, -18.1, -75.6, 2.41, 1.36, -3.08, -30.8, -36.4, -13.2, -24.6, -26.2, -10.4 (2×), -25, -24.7, -10.2, 0.348, -18.2, -20.1 (2×), -2.09, -21.2, -49.2, -8.27, -1.94, -14.9, -39.1, -26.4, 1.38, -29.7, -3.23, -36.8, -15.2, -42.2, -36.6, -22.4, 0.771, 3.25, 2.98, -29.5, -9.07, -16.9, 1.31, 0.0603% and inactive: 116%"
same,growth,"25 µM, runs of 1993","active: -25.1, -25.5, 5.29, -20.6, -28.7, -36.1, -31.1, -31.5, -14.6, 5.74, -36, -45, -16.2, 2.15 (2×), 1.83, 0.541, -17.1, 3.5, -28.9 (2×), -10, -12.7, -43.2, -2.11, 0.146, -22.9, -9.79, -26.3, -36.9, -29.7, -29.8, -11.3, -32.6, -8.02, -2.27, -12, 1.49, -17.9, -14.4, -2.66, 1.38, -29.2, -19.4, -24.9% and inactive: 13.6%"
same,growth,"25 µM, runs of 1994","active: -11.5, -65.8, -24.9, -21.8, -16, 0.91, -11.9, -37.1, -3.1, -15.3, -63.5, -18.3, -7.72, -48.4, -22.4, -0.278, -52.1, -18.9, -30, -20.1, -8.22, -44.9, -28.8, -25.6, -64.3, 0.475, -27.2, -30.8, -21.3, -11.2, -9.39, -31.1, -15.1% and inactive: 80.7%, 15.3%"
same,growth,"25 µM, runs of 1995","active: -14.9, -56.6, -25.1, 1.48, -26.1, -30.4, 0.624, -23.5, 4.33, -15.5, 2.22, -53.7, -1.74, 5.06, -25.9, -11.7, 3.59, -0.852, -26.7, -19.3, -32.5, -66.7, -12.3, 6.13, -21.9, -11.2, -24.3, -10.7, 6.68, 2.41, -17.2, -15.1, 6.21, -18.3, -37.8, -21.2, -47.3, -25.7, -28.5, -7.42%"
same,growth,"25 µM, runs of 1996","active: -14.2, -5.47, -8.21, -20.8, 2.29, 0.132, 2.89, -13.8, -46.3, 0.537, -32.8, -44.2, 1.29, -16.2, -12.7, -13, -22.9, -0.289, 7, -28, 0, -20.7, -14.7, 0.42, -14.1, -4.36, -22.2, -11.8, 3.66, 5.6, 9.13, -2.23, -20.2, -0.588, 2.97, -57.1, 3.45, -1.81, -6.47, 8.65, 4.45, -18.2, -17.7, -2.45, 8.84, 0.473, -7.07, -22, -13.5% and inactive: 11.9, 98.6, 12.2, 13.8%"
same,growth,"25 µM, runs of 1997","active: -44.7, 0.48, -29.2, -16.1, 5.39, 1.16, -11.6, -40.9, -42.4, 9.48, -5.9, 5.75, -6.25, -18.9, 0, 0.443, -9.05, -9.15, 0.538, -16.7, -10.1, 4.76, -30.3, 0.182, 4.1, -9.16, -27.9, -2.4, -36, -14.3, -30.9, -19.3, -7.5, 0.806, -61.9, 2.46, -20.9, -30, 7.22% and inactive: 11.1%, 11.3%"
same,growth,"25 µM, runs of 1998","active: -32.9, -28.3, -61.6, -1.22, 3.35, 3.41, -52.6, -57, -6.63, -45.6, 0.632, 3.24, 0.617, -17.2, -0.336, 5.03, -1.53, 5.65, -0.621, 2.11% and inactive: 17.6%, 10.3%, 28.4%"
same,growth,"25 µM, runs of 1999","active: -29.4, 8.33, 7.3, -46, -100 (2×), -22.1, 5.4, -69.5, 2.29, 4.53, 1.05, 4.79, 7.86, 1.46% and inactive: 11.6%, 14%"
same,growth,"25 µM, runs of 2000","active: 3.74%, 4.23%, 1.23% and inactive: 490%"
